# Measurements reported in the supplement of paper PMC8728848.
# This is one part of the list.
# What was measured:
# Assay in all cases: glycan array binding signal (z-score within array); higher = stronger binding
# Conditions in all cases: glycan notation: IUPAC condensed, linker removed
# [1] = target: Fuc(a1-2)[GalNAc(a1-3)]Gal(b1-3)GlcNAc(b1-3)GalNAc
# How it was run: (§1)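 The binding signal is a Z-score computed within each array. Data were drawn from 3228 arrays in the Consortium for Functional Glycomics database, restricted to those with a known protein sequence. Scores were averaged over arrays of the same protein sequence at different concentrations or buffers, and over linkers, and negative values can be taken as non-binding.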
# [2] = target: Fuc(a1-2)[GalNAc(a1-3)]Gal(b1-3)GlcNAc(b1-6)GalNAc
# How it was run: as §1
# [3] = target: Fuc(a1-2)[GalNAc(a1-3)]Gal(b1-4)Glc
# How it was run: as §1
# [4] = target: Fuc(a1-2)[GalNAc(a1-3)]Gal(b1-4)GlcNAc
# How it was run: as §1
# [5] = target: Fuc(a1-2)[GalNAc(a1-3)]Gal(b1-4)GlcNAc(b1-2)Man
# How it was run: as §1
# [6] = target: Fuc(a1-2)[GalNAc(a1-3)]Gal(b1-4)GlcNAc(b1-2)Man(a1-3)[Fuc(a1-2)[GalNAc(a1-3)]Gal(b1-4)GlcNAc(b1-2)Man(a1-6)]Man(b1-4)GlcNAc(b1-4)GlcNAc
# How it was run: as §1
# [7] = target: Fuc(a1-2)[GalNAc(a1-3)]Gal(b1-4)GlcNAc(b1-2)Man(a1-3)[Fuc(a1-2)[GalNAc(a1-3)]Gal(b1-4)GlcNAc(b1-2)Man(a1-6)]Man(b1-4)GlcNAc(b1-4)[Fuc(a1-6)]GlcNAc
# How it was run: as §1
# [8] = target: Fuc(a1-2)[GalNAc(a1-3)]Gal(b1-4)GlcNAc(b1-3)Gal(b1-4)GlcNAc
# How it was run: as §1
# [9] = target: Fuc(a1-2)[GalNAc(a1-3)]Gal(b1-4)GlcNAc(b1-3)Gal(b1-4)GlcNAc(b1-3)Gal(b1-4)GlcNAc
# How it was run: as §1
# [10] = target: Fuc(a1-2)[GalNAc(a1-3)]Gal(b1-4)GlcNAc(b1-3)GalNAc
# How it was run: as §1
# [11] = target: Fuc(a1-2)[GalNAc(a1-3)]Gal(b1-4)GlcNAc(b1-3)[Fuc(a1-2)[GalNAc(a1-3)]Gal(b1-4)GlcNAc(b1-6)]GalNAc
# How it was run: as §1
# [12] = target: Fuc(a1-2)[GalNAc(a1-3)]Gal(b1-4)GlcNAc(b1-6)GalNAc
# How it was run: as §1
# [13] = target: Fuc(a1-2)[GalNAc(a1-3)]Gal(b1-4)[Fuc(a1-3)]GlcNAc
# How it was run: as §1
# [14] = target: Fuc(a1-2)[GalNAc(a1-3)]Gal(b1-4)[Fuc(a1-3)]GlcNAc(b1-3)GalNAc
# How it was run: as §1
# [15] = target: Fuc(a1-2)[GalNAc(a1-4)]Gal(b1-4)GlcNAc
# How it was run: as §1
# [16] = target: Fuc(a1-2)[GalNAc(b1-3)]Gal
# How it was run: as §1
# Fuc(a1-3)GlcNAc = target: Fuc(a1-3)GlcNAc
# How it was run: as §1
# [17] = target: Fuc(a1-3)[Gal(b1-4)]Glc6S
# How it was run: as §1
# [18] = target: Fuc(a1-3)[Gal(b1-4)]GlcNAc
# How it was run: as §1
# [19] = target: Fuc(a1-3)[Gal(b1-4)]GlcNAc(b1-2)Man
# How it was run: as §1
# [20] = target: Fuc(a1-3)[Gal(b1-4)]GlcNAc(b1-2)Man(a1-3)[Fuc(a1-3)[Gal(b1-4)]GlcNAc(b1-2)Man(a1-6)]Man(b1-4)GlcNAc(b1-4)GlcNAc
# How it was run: as §1
# [21] = target: Fuc(a1-3)[Gal(b1-4)]GlcNAc(b1-2)Man(a1-3)[Fuc(a1-3)[Gal(b1-4)]GlcNAc(b1-2)Man(a1-6)]Man(b1-4)GlcNAc(b1-4)[Fuc(a1-6)]GlcNAc
# How it was run: as §1
binder,measurement,setting,value
"Cp ZmpB (Clostridium perfringens), Q0TR08 (protein) MNKRKIAAIILATMITNLSATTIDVLAQELNTKNNSKVEVSHDDESHQARVSKFDLYNSDKLDAYNQEFQVSRSNIKSINNNGGKYNSSTIDKAIDGNLETHWETGKPNDANFTNEVVVTFNEITNIDRIVYSARRDSARGKGFAKEFEIYASLKDEGDDFNLVSSGEYTESTRDLVEIKFNPTDFKRLKFKFKKADQNWASAAEFMFYKEDKLNEKFNGLFTDSSMNKVSEEFNTLEKLNAFENELKDHPIYDLYKEGLNNARAILTETSENPTKATLGQITYNLNDDYNNQYRMPYKNIKAIKNNGRHYAAQNIEKAIDNDVNTYWETGTLNSSSFNNEVEVEFNDLVTLDRIVYGSRQSDLKGFAEEVYIYASRTSKGDTYKLVATGAHEATKGLVEAKFEPTEFKRVKFKFKKSKQNSATLNELMFYKPDEVYSSIPKLFTDGTMSELSEEFNSLEKINAFKEKAKNHPLYNDFNETIELAESLISNPRKEDVLELEMRGDSISEAKKRKVWNFQDWQITGLSARAGDKITVYVDVAEGDPTPTLLYKQSLTQHGGATSFQLKPGKNEITIPEINYESNGIPKDVIQGGDLFFTNYKSDSQKRAPKVRIEGASKYPVFILGKSDENEVMKELEAYVEKIKAEPKTTPNIFAVSSNKSLEFVQATYALDWYKKNNKTPKYTAEQWDQYIADAMGFWGFDNSKDVNSDFNFRIMPMVKNLSGGAFMNAGNGVIGIRPGNQDAILAANKGWGVAHELGHNFDTGGRTIVEVTNNMMPLFFESKYKTKTRITDQNIWENNTYPKVGLDDYSNNELYNKADSTHLAQLAPLWQLYLYDNTFYGKFERQFRERDFGNKNREDIYKSWVVAASDAMELDLTEFFARHGIRVDDKVKEDLAKYPKPDKKIYYLNDLAMNYKGDGFTENAKVSVSTSGSNGNIKLSFSVDDENKDNILGYEIRRDGKYVGFTSNDSFVDTKSNLDEDGVYVVTPYDRKLNTLNPIEVNALQPTLSVNPVITLALGEEFNEEEYIVAKDIKGNSLSESVKVKSSNVNTSKVGEYEVLYSLEDSKGNEYTKTSKVNVVSRKEYMSDLTPKQSSNGWGTVRKDKSISGGVIGLTRDGDFVDYNKGLGLHSNAEYVYDLEGKDYDYFESYVGVDKAMSSRPASSVIFKVLVDGEEKFNSGVMRSTTPQKYVKVDVKNAKELKLIVNDAGDGDSSDHASFGDAKLATLSSKPIIKGENLAYSMDEKVDLMKGITATDIEDGNITSKVQIKSSDFVEGKSGIFTVVYSVTDSDGLTSECSRTIAVTDKETQLSDLNWKSATIGSGSVRKDRAVSGNQIRLLNEDNSVETFAKGIGTHSYSEIVYNSEGYDIFDTWVGIDRHVADKKVSSVKFKVYVDGELKAETDVMRIDTPKKRLVVDVRNSKEIKLVVDVADNGNNWDHADWADAKFRNLAEYDASELNKAIEEAKKLDLNNYTEESSEALKNAISKGEEALLSKDKETINSALEELNKEMNSLVKVDLNAVINIPDKYLLKSIQNQLNKTGDITLGDMYSLTTLTLSGVEDLTGLENAKNLETLNMDYNEVKDLRPLSKLKKLNTLNAQEQFIAAGELKPSNGKVIGDSKVYNREGKNVAKTIRVVDKNGNTILEQDAKDEFTINTKDLSSGLYGVHVLFEDEGFSGVMFYLFNV",glycan array binding signal (z-score),[1],0.006
same,glycan array binding signal (z-score),[2],-0.28
same,glycan array binding signal (z-score),[3],0.149
same,glycan array binding signal (z-score),[4],-0.068
same,glycan array binding signal (z-score),[5],-0.362
same,glycan array binding signal (z-score),[6],-0.201
same,glycan array binding signal (z-score),[7],-0.353
same,glycan array binding signal (z-score),[8],-0.447
same,glycan array binding signal (z-score),[9],-0.359
same,glycan array binding signal (z-score),[10],-0.003
same,glycan array binding signal (z-score),[11],0.161
same,glycan array binding signal (z-score),[12],-0.028
same,glycan array binding signal (z-score),[13],-0.371
same,glycan array binding signal (z-score),[14],-0.073
same,glycan array binding signal (z-score),[15],0.298
same,glycan array binding signal (z-score),[16],-0.499
same,glycan array binding signal (z-score),Fuc(a1-3)GlcNAc,0.464
same,glycan array binding signal (z-score),[17],0.539
same,glycan array binding signal (z-score),[18],0.121
same,glycan array binding signal (z-score),[19],0.205
same,glycan array binding signal (z-score),[20],0.308
same,glycan array binding signal (z-score),[21],-0.107
